In ChEMBL document CHEMBL4888484, “Replenishing the malaria drug discovery pipeline: Screening and hit evaluation of the MMV Hit Generation Library 1 (HGL1) against asexual blood stage Plasmodium falciparum ,using a nano luciferase reporter read-out” (2022):
Hit rate of the full screen: of about 150,000 compounds, about 540 (0.36%) showed an effect of 50% or more. Some of the results follow.

What follows are molecules tested on Plasmodium falciparum (assay: Primary screen in NF54 nanoGlo assay, in single point, at 2uM, 72h; a lower Z score goes with more inhibition). Details: timepoint 72 hour.
Type: functional, Erythrocyte
`CC1CN(S(=O)(=O)N2CCCC(c3cn[nH]c3)C2)CC(C)O1` (stereo not drawn) was tested, and the “% Inhibition” value was -12% and the Z score was 1.37. In the case of `CCOc1ccc(C(=O)N[C@H](CO)Cc2cncs2)cc1`, the “% Inhibition” value is reported as 11% and the Z score is reported as -1.23. With `C[C@@H](NC(=O)c1cccnc1)C(=O)NC1CCN(Cc2ccccc2)CC1` the “% Inhibition” value was 5% and the Z score was -0.72. With `Cc1[nH]c(=O)c(C#N)cc1C(=O)N[C@H]1CCOC[C@@H]1OCC1CCC1` the “% Inhibition” value was -3% and the Z score was 0.54. In the case of `Cc1cc(CN(C)C(=O)c2ccc(-c3nc(C)cnc3C)cc2)on1`, the “% Inhibition” value is reported as -7% and the Z score is reported as 1.33. `CCC(CC)(CNC(=O)[C@@H]1CCCCN1C(C)C)S(C)(=O)=O` was tested, and the “% Inhibition” value was -12% and the Z score was 2.2. In the case of `O=C(Nc1ccc(Cl)cc1)c1cn2c3c(cccc3c1=O)CC2`, the “% Inhibition” value is reported as 8% and the Z score is reported as -0.99. In the case of `CCC(C)N1C2OC(C3OC4C(O3)N(C(C)CC)S(=O)(=O)N4C(C)CC)OC2N(C(C)CC)S1(=O)=O` (stereo not drawn), the “% Inhibition” value is reported as -18% and the Z score is reported as 1.93. For `O=C(CN1CN(c2ccccc2)C2(CCN(C(=O)NC3CCCCC3)CC2)C1=O)NCCc1ccccc1`, the “% Inhibition” value was 6% and the Z score was -0.92. For `CN(Cc1ccc(-c2ccccc2)cc1)c1cc([C@H]2C[C@@H](N)C2)nc(N)n1`, the “% Inhibition” value was 64% and the Z score was -8.85. In the case of `Fc1ccc([C@H](c2nnc(-c3ccccc3)o2)N2CCC3(CC2)OCCO3)cc1`, the “% Inhibition” value is reported as -20% and the Z score is reported as 2.23. For `CC[C@H]1CCCCCN1C(=O)NCC(=O)N(C)CC(F)(F)F`, the “% Inhibition” value was -6% and the Z score was 0.48. In the case of `COc1ccccc1N(C)C(=O)C(=O)NC1CC1`, the “% Inhibition” value is reported as 4% and the Z score is reported as -0.57. For `CNc1nccnc1-c1cnc2ccc(C)cc2c1`, the “% Inhibition” value was -17% and the Z score was 1.81. For `CN1C(=O)COC12CCN(CC1CC3(CCC3)C1)CC2`, the “% Inhibition” value was -8% and the Z score was 1.24. `C=CCC1(CNC2CCC(C(=O)O)CC2)CCCC1` (stereo not drawn) was tested, and the “% Inhibition” value was -16% and the Z score was 1.84. For `Cc1cccc(CNC(=O)N2CCC(N3CCC[C@H](O)C3)CC2)c1C`, the “% Inhibition” value was -6% and the Z score was 1.07. With `CC(=O)N1CCCC(c2noc(C3CCc4[nH]ncc4C3)n2)C1` (stereo not drawn) the “% Inhibition” value was -4% and the Z score was 0.62. In the case of `CCCN(Cc1c(C)nn(-c2ccccc2)c1N1CCN(CC)CC1)C(=O)c1ccc2ccccc2c1`, the “% Inhibition” value is reported as -16% and the Z score is reported as 1.85. With `O=C(c1cccc(F)c1F)N1C[C@@H]2CC[C@H]1CN(C1CCOCC1)C2` the “% Inhibition” value was -4% and the Z score was 0.74. `Cc1csc(N(CCc2ccccc2)C(=O)c2cnn(C)c2)n1` was tested, and the “% Inhibition” value was 4% and the Z score was -0.38. With `CN(C)c1ncc(NC(=O)C2CCCC2)c(N(C)C)n1` the “% Inhibition” value was 0% and the Z score was -0.08. `COC(=O)c1ccc(NC(=O)Cn2nc3c(N4CCOCC4)nccn3c2=O)cc1` was tested, and the “% Inhibition” value was 1% and the Z score was -0.13. `C[C@@H](CN1CC2(CCN(Cc3cnn(C)c3C3CC3)CC2)OC1=O)c1ccccc1` was tested, and the “% Inhibition” value was 2% and the Z score was -0.23. In the case of `CC1CN(S(C)(=O)=O)C(C)CN1CCOCC(F)F` (stereo not drawn), the “% Inhibition” value is reported as 6% and the Z score is reported as -1.07. With `C[C@H](Oc1cc(Cl)cc(Cl)c1)C(=O)NCCc1cnn(C)c1` the “% Inhibition” value was 10% and the Z score was -1.3. For `CCCNC(=O)CN1CC[C@H](c2ncccn2)C1`, the “% Inhibition” value was -10% and the Z score was 1.61. In the case of `CC1CCC(N2C[C@@H](C(=O)N(C)CC(=O)NCc3cccs3)CC2=O)CC1` (stereo partly drawn), the “% Inhibition” value is reported as -7% and the Z score is reported as 0.78. In the case of `COCCN1CC2(CCC1=O)CCN(C(=O)c1csc(C)c1)CC2`, the “% Inhibition” value is reported as 2% and the Z score is reported as -0.21. With `CC(C(=O)Nc1cc(C(F)(F)F)n[nH]1)C1OCCc2sccc21` (stereo not drawn) the “% Inhibition” value was 7% and the Z score was -0.98. `CCCn1cc(C(=O)N2CCc3[nH]c(-c4cn[nH]c4)nc3C2)c(C)n1` was tested, and the “% Inhibition” value was 8% and the Z score was -1.56. `CC1(C)CC2=NC(=O)C[C@@H](C(=O)Nc3cc(C(F)(F)F)ccc3Cl)C2=C(O)C1` was tested, and the “% Inhibition” value was 8% and the Z score was -0.98. `Cc1ccncc1CN(C)CCCCC1CCOCC1` was tested, and the “% Inhibition” value was -4% and the Z score was 0.75. With `Cc1csc(C(C)CNC(=O)NC2CCN(C(C)C)C2=O)n1` (stereo not drawn) the “% Inhibition” value was -5% and the Z score was 0.51. In the case of `CS(=O)(=O)NCC1CCC(C(=O)NC2CCN(Cc3ccccc3)CC2)CC1` (stereo not drawn), the “% Inhibition” value is reported as -21% and the Z score is reported as 2.36. For `NCC1(C(=O)NCc2ccccc2OC2CCC2)CCOCC1`, the “% Inhibition” value was -11% and the Z score was 1.25. With `COc1cnc(N(C)Cc2ccc(-n3cccn3)cc2)nc1` the “% Inhibition” value was -4% and the Z score was 0.7. For `CCn1cc(S(=O)(=O)N[C@@](C)(CC)c2nc(C)cs2)cn1`, the “% Inhibition” value was -13% and the Z score was 2.64. For `c1ccc([C@@H]2CN(c3ncnc4ccccc34)CCO2)cc1`, the “% Inhibition” value was -13% and the Z score was 1.66. In the case of `COc1ccc(CN2CCNC(=O)[C@@H]2CC(=O)NCCc2ccc(Cl)cc2)cc1OC`, the “% Inhibition” value is reported as -16% and the Z score is reported as 2.26. For `O=C(Cn1cncn1)NCCCc1ccc(Br)cc1F`, the “% Inhibition” value was -4% and the Z score was 0.62. `Cc1cc(C)cc(C(=O)N2CCC([C@]3(CCC(C)C)NC(=O)N(CCN(C)C)C3=O)CC2)c1` was tested, and the “% Inhibition” value was -16% and the Z score was 2.06. For `Cn1nc(C(=O)N2CCOCC2)cc1C(=O)Nc1ccc(F)c(F)c1`, the “% Inhibition” value was -14% and the Z score was 1.59. With `Cc1noc(COC(=O)C2(c3cccc(Cl)c3)CCCCC2)n1` the “% Inhibition” value was -12% and the Z score was 1.36. `Cc1nn(-c2ccccc2)c2nc(C3CCOCC3)nc(N3CCN(C(=O)Cc4cccs4)CC3)c12` was tested, and the “% Inhibition” value was 3% and the Z score was -0.45. In the case of `COc1ccc(C)cc1NC(=O)C(=O)NCC(=O)N1CCO[C@H](c2ccccc2)C1`, the “% Inhibition” value is reported as -10% and the Z score is reported as 1.46. For `CCCN(CCO)C(=O)Nc1ccccc1N(C)C`, the “% Inhibition” value was 10% and the Z score was -1.46. `COc1ccc(C(=O)N2CCC3(CC2)[C@H](O)C[C@@H]3OC)cc1C` was tested, and the “% Inhibition” value was 2% and the Z score was -0.26. In the case of `CN(CCC(=O)Nc1ccccc1C#N)Cc1nccn1C(F)F`, the “% Inhibition” value is reported as -5% and the Z score is reported as 0.79. In the case of `O=C(C1CC(=O)N(c2ccc(F)cc2)C1)N1CCCCC(c2ccc(F)cc2)C1` (stereo not drawn), the “% Inhibition” value is reported as -15% and the Z score is reported as 2.37. For `O=C(COc1cccc2cccnc12)NC(C1CC1)C1CC1`, the “% Inhibition” value was 34% and the Z score was -3.82. For `COCCN(CC(C)C)C(=O)Cc1ccn(C(C)C)n1`, the “% Inhibition” value was -8% and the Z score was 0.76. `CC(C)CCN(CCC#N)Cc1cc(=O)n2nccc2[nH]1` was tested, and the “% Inhibition” value was -4% and the Z score was 0.62. With `Cn1nccc1CCNC(=O)Nc1cccnn1` the “% Inhibition” value was -5% and the Z score was 0.74. `c1ccc(Nc2cnc3ccccc3c2)nc1` was tested, and the “% Inhibition” value was -9% and the Z score was 1.27. In the case of `O=C1NCC[C@@H]1Nc1ccc(Oc2ncc(Cl)cn2)c(Cl)c1`, the “% Inhibition” value is reported as 5% and the Z score is reported as -0.6. `O=C(Nc1ccncc1F)c1ccoc1` was tested, and the “% Inhibition” value was -2% and the Z score was 0.15. `CCc1nnc(N2CCC(c3nc(C)no3)CC2)n1C[C@H]1CCCCO1` was tested, and the “% Inhibition” value was -9% and the Z score was 1.05. For `CCOc1ncccc1C(=O)Nc1cccc(S(=O)(=O)N2CCCCC2)c1`, the “% Inhibition” value was -15% and the Z score was 2.28. In the case of `COc1ncccc1COc1nnc(-c2ccccc2)o1`, the “% Inhibition” value is reported as -3% and the Z score is reported as 0.63. `O=C1CN(Cc2ccn(C3CCCC3)n2)C2CCCCC2N1` (stereo not drawn) was tested, and the “% Inhibition” value was -7% and the Z score was 0.83. In the case of `COc1ncnc2c1CN(C(=O)c1cc3c(s1)CC[C@H](C)C3)CC2`, the “% Inhibition” value is reported as 38% and the Z score is reported as -4.93. With `O=C(Nc1nc2ccccc2n1C1CCCC1)c1ccon1` the “% Inhibition” value was -12% and the Z score was 1.47. With `O=S(=O)(c1ccc(-c2ccn[nH]2)s1)N1CCc2ccccc2C1` the “% Inhibition” value was 4% and the Z score was -0.74. `C#CCNC(=O)c1ccc(NCCn2c(C)nc3ccccc32)nc1` was tested, and the “% Inhibition” value was 1% and the Z score was -0.1. `Cc1oc2ncn(C)c(=O)c2c1C(=O)N1CCCCC1` was tested, and the “% Inhibition” value was 1% and the Z score was -0.09. In the case of `O=C(CN1CCOC1=O)N1CC[C@H](Oc2cc(C(F)(F)F)ccn2)C1`, the “% Inhibition” value is reported as -7% and the Z score is reported as 1.4. For `CC(C#N)CNC1CCC2(CC1)CC2NC(=O)OC(C)(C)C` (stereo not drawn), the “% Inhibition” value was 14% and the Z score was -1.9. With `CCCCS(=O)(=O)N1CCCCC1` the “% Inhibition” value was -6% and the Z score was 0.61. `Cn1ncc(Oc2ccc3c(c2)OCO3)c(Nc2cccc(C(=O)NC3CC3)c2)c1=O` was tested, and the “% Inhibition” value was -20% and the Z score was 1.76. For `CC1(C(=O)NCc2nc3cc(C(C)(C)C)ccc3o2)COC1`, the “% Inhibition” value was 8% and the Z score was -1.01. In the case of `CCc1csc(CNC(=O)c2ccc(OCC(=O)N3CCCCC3)cc2)n1`, the “% Inhibition” value is reported as -22% and the Z score is reported as 2.21. For `CN(C)[C@@H]1C[C@@H](CO)N(Cc2cnc3c(-c4ccccc4)cnn3c2)C1`, the “% Inhibition” value was 4% and the Z score was -0.81. `COc1ccc(N2C(=O)[C@H]3[C@@H](C2=O)[C@]2(C(=O)Nc4c2ccc(C)c4C)N2CCC[C@@H]32)cc1` was tested, and the “% Inhibition” value was 1% and the Z score was -0.18. With `Cc1cccc(-n2nc(C)c3sc(N(C)CC(=O)N4CCOCC4)nc32)c1` the “% Inhibition” value was -7% and the Z score was 0.94. `O=C(CN1CCN(C(=O)Nc2ccc(F)cc2)CC1=O)N1CCC(Cc2ccccc2)CC1` was tested, and the “% Inhibition” value was -6% and the Z score was 1.11. For `Cc1nnc(NC(=O)c2ccc(N3CCCS3(=O)=O)cc2C)s1`, the “% Inhibition” value was -8% and the Z score was 0.76. With `O=C(CCCc1ccccn1)Nc1cc(C2CC2)nn1[C@H]1CCS(=O)(=O)C1` the “% Inhibition” value was -1% and the Z score was 0.14. With `COCCC[C@H]1CCCN(Cc2cc3cc(F)ccc3n2C)C1` the “% Inhibition” value was -9% and the Z score was 1.62. In the case of `O=C(N1CCc2nccnc2C1)C1(C2CC2)CCC1`, the “% Inhibition” value is reported as -2% and the Z score is reported as 0.26. With `C[C@H](NC(=O)c1ccc(F)c(Br)c1)C(=O)N(C)C` the “% Inhibition” value was -4% and the Z score was 0.75. In the case of `CC1CCN(c2cc(-n3cnc(C(=O)NC4CCCC4)c3)ncn2)CC1`, the “% Inhibition” value is reported as -16% and the Z score is reported as 1.74. With `CC(=O)N1CCN(C(=O)Cn2c(=O)n(-c3ccc(C)c(Cl)c3)c(=O)c3ccccc32)CC1` the “% Inhibition” value was -6% and the Z score was 0.6. For `COc1cc(F)c(NC(=O)c2cc(-c3ccccc3)ccc2Cl)cc1OC`, the “% Inhibition” value was -4% and the Z score was 0.39.
